Inconclusive results, whose numbers are uncertain, are shown with a selection of clear calls. For part of these data: A potency beside an inconclusive call is a rough fit, not a confirmed value. Active and inactive are the calls of the source. Unless noted, calls come from the whole dose curve; as a rule, active = well fitted curve in the direction sought with a large enough effect in the repeat runs; inconclusive = weak or mixed curves; inactive = no such curve, though single readings can be large; an effect the other way counts as inactive or inconclusive.
How the values were obtained:
[1] = qHTS RealTime-Glo MT Cell Viability Assay in HepG2 cells - 16 hour (AID 1224885); note: potency is the fitted concentration of half-maximal effect; nearly all actives have a fitted effect of over 50% in size
In short: (§1)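 Compound treatment began 5 h after plating HepG2 cells (600/well) with NanoLuc luciferase and prosubstrate. Plates stayed at 37 C for 40 h; luminescence was captured at six time points, 0 h through 40 h.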

[2] = qHTS assay to identify small molecule agonists of the sonic hedgehog signaling (Shh) pathway - cell viability counter screen (AID 1259366); note: potency is the fitted concentration of half-maximal effect; nearly all actives have a fitted effect of over 50% in size
In short: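 NIH/3T3-derived Gli1-Luc reporter cells, 2,000 per well, received compound after 4 h and were treated about 23 h at 37C. Viability measured in the same wells by CellTiter-Fluor fluorescence after 1 h.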

[3] = qHTS assay to identify small molecule antagonists of the sonic hedgehog signaling (Shh) pathway (AID 1259369; calls by dose curve; note: potency is the fitted concentration of half-maximal effect; nearly all actives have a fitted effect of over 45% in size)
In short: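 Read-out is luminescence from a firefly luciferase gene controlled by the Gli1 response element, in 3T3Gli1-Luc cells pre-incubated 4hr then exposed to compounds and conditioned medium for 24hr.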

[4] = target: Estrogen receptor beta (Homo sapiens) (UniProt Q92731); assay: qHTS assay to identify small molecule agonists of the estrogen receptor beta (ER-beta) signaling pathway (AID 1259377; active = well fitted activation curve with a large enough effect in the signal ratio in the repeat runs, not every such curve was filed as active; inconclusive = weak or mixed curves, or effect the other way; the % refers to the signal ratio; note: potency is the fitted concentration of half-maximal effect); conditions: ER-beta-UAS-bla HEK293T, beta-lactamase FRET ratio, 16 h; series mostly up to 92.4 µM
Chain of UniProt Q92731 (Q92731 whole entry, looked up): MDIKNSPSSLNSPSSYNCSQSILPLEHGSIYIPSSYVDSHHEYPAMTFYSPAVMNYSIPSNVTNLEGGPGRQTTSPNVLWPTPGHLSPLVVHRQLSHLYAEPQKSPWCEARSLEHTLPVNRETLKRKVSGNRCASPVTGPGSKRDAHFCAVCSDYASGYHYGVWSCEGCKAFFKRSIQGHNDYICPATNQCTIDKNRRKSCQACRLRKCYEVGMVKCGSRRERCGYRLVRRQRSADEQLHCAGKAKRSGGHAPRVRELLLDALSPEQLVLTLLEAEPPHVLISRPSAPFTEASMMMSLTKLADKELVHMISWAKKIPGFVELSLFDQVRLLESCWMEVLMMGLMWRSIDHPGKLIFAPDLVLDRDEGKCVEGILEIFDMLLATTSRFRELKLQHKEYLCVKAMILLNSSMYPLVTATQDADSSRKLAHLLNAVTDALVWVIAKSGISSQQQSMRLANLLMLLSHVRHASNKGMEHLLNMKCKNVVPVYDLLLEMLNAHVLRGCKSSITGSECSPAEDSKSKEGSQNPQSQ
In short: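 ER-beta-UAS-bla HEK293T cells in medium with 2% charcoal-stripped FBS were exposed to compounds for 16 h at 37C. Beta-lactamase reporter activity was read as fluorescence after 2 h with LiveBLAzer B/G FRET substrate at room temperature.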

[5] = target: Estrogen receptor beta (Homo sapiens) (UniProt Q92731); assay: qHTS assay to identify small molecule antagonists of the estrogen receptor beta (ER-beta) signaling pathway (AID 1259378; active = well fitted inhibition curve with a large enough effect in the signal ratio in the repeat runs, not every such curve was filed as active; inconclusive = weak or mixed curves, or effect the other way; inactive = no such curve, though single readings can be large or run the other way; the % refers to the signal ratio; note: potency is the fitted concentration of half-maximal effect); conditions: ER-beta-UAS-bla HEK293T, beta-lactamase FRET ratio, 16 h; series mostly up to 92.4 µM
In short: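 ER-beta-UAS-bla HEK293T cells in 2% charcoal-stripped FBS medium treated with compound plus 1nM final 17-beta-estradiol for 16 hr at 37C. Beta-lactamase reporter read by FRET substrate fluorescence after 2 hours at room temperature.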

[6] = A CellTox Green Cytotoxicity Assay to monitor cytotoxicity in HEK293 cells - 16 hour (AID 1224888); note: potency is the fitted concentration of half-maximal effect; nearly all actives have a fitted effect of over 35% in size
In short: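 Real-time, in one plate: 600 HEK293 cells/well with dead-cell DNA dye, pinned compound after 5 h, 37 C incubation over 40 h; viable cells give no appreciable fluorescence.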

[7] = qHTS assay to identify small molecule antagonists of the estrogen receptor alpha (ER-alpha) signaling pathway using the BG1 cell line in the presence of 0.1 nM 17-beta-estradiol - cell viability counter screen (AID 1259241); note: potency is the fitted concentration of half-maximal effect; nearly all actives have a fitted effect of over 40% in size
In short: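 VM7Luc4E2 cells (endogenous full-length ER-alpha, 4xERE-luciferase), cultured 5 days in charcoal-stripped serum, exposed to compounds with 0.1 nM 17beta-estradiol (final) for 22 hr at 37C. Viability read in same wells as live-cell protease fluorescence after 30 min.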

[8] = qHTS assay to identify small molecule antagonists of the androgen receptor (AR) signaling pathway using the MDA cell line in the presence of 0.5 nM R1881 - cell viability counter screen (AID 1259242); note: potency is the fitted concentration of half-maximal effect; nearly all actives have a fitted effect of over 45% in size
In short: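 Cells seeded at 3,000/well and allowed 5 hr at 37C, 0% CO2 before compound transfer and R1881 (0.5 nM final) addition; 16 hr later, live-cell protease fluorescence indicated cytotoxicity.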

[9] = target: Estrogen receptor (Homo sapiens) (UniProt P03372); assay: qHTS assay to identify small molecule antagonists of the estrogen receptor alpha (ER-alpha) signaling pathway using the BG1 cell line in the presence of 0.1 nM 17-beta-estradiol (AID 1259244); note: potency is the fitted concentration of half-maximal effect; nearly all actives have a fitted effect of over 50% in size
Chain of UniProt P03372 (P03372 whole entry, looked up): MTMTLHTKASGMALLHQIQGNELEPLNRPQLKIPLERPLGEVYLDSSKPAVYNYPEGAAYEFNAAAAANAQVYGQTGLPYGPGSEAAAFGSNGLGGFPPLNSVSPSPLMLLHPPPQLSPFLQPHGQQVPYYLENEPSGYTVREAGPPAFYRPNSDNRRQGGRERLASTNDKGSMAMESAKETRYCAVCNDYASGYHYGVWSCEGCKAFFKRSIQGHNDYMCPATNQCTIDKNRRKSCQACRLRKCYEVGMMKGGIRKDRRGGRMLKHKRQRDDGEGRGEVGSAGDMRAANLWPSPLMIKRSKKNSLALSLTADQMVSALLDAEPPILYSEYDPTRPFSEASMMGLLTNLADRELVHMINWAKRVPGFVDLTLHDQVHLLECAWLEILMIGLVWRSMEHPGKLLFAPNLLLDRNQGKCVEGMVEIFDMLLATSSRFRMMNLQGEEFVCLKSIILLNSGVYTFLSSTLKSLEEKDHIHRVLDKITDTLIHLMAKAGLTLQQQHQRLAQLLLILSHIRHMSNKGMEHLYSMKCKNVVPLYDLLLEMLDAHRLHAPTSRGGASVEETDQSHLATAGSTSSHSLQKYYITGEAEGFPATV
In short: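 Luciferase signal from VM7Luc4E2 ERE-reporter cells, co-dosed with test compound and 0.1 nM final 17beta-estradiol for 22 h, read with ONE-Glo.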

[10] = qHTS assay to identify small molecule phospholipidosis (PLD) inducers (AID 1259344; active = well fitted curve in the direction sought with a large enough effect; inconclusive = small, poorly fitted or top-dose-only effect, or another doubt; inactive = no such curve, though single readings can be large; an effect the other way counts as inactive or inconclusive)
In short: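 Read-out is LipidTOX Red fluorescence (ex 595/em 615) imaged in HepG2 cells after 24 h compound exposure at 37 C, with Hoechst nuclear counterstain (ex 352/em 461) allowing per-cell normalisation.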

[11] = qHTS assay to identify small molecule HDAC inhibitors - cell viability counter screen (AID 1259365); note: potency is the fitted concentration of half-maximal effect; nearly all actives have a fitted effect of over 50% in size
In short: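 Wild-type HCT-116 cells, 1,500/well, cultured overnight, then compound-treated 2 h at 37 C. Viability measured as ATP luminescence with CellTiter-Glo after 30 min at room temperature.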

[12] = qHTS assay to identify small molecule antagonists of the sonic hedgehog signaling (Shh) pathway - cell viability counter screen (AID 1259367); note: potency is the fitted concentration of half-maximal effect; nearly all actives have a fitted effect of over 55% in size
In short: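 Fluorescence read-out (CellTiter-Fluor, 1 hr at 37C) taken after 23 hr compound treatment of 3T3 Gli1-Luc cells stimulated with conditioned medium. Cells were seeded at 2,000 per well and pre-incubated 4 hr.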

[13] = qHTS RealTime-Glo MT Cell Viability Assay in HepG2 cells - 0 hour (AID 1224889)
In short: as §1

[14] = A CellTox Green Cytotoxicity Assay to monitor cytotoxicity in HepG2 cells - 8 hour (AID 1224890); note: potency is the fitted concentration of half-maximal effect; nearly all actives have a fitted effect of over 45% in size
In short: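 Cytotoxicity was tracked as dead-cell DNA fluorescence in HepG2 cells treated with test compounds at 37 C; each time-point value comes from one kinetic series spanning 0, 8, 16, 24, 32 and 40 h.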

[15] = qHTS assay to identify small molecule agonists of the androgen receptor (AR) signaling pathway in the presence of an antagonist - cell viability counter screen (AID 1259379); note: potency is the fitted concentration of half-maximal effect; nearly all actives have a fitted effect of over 25% in size
In short: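 Each compound was tested at 15 concentrations on MDA-kb2 cells in the presence of 3.0uM nilutamide. Viability was measured by CellTiter-Fluor fluorescence after a 16 hr incubation at 37C in a CO2-free atmosphere.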

Measured: Potency
Tags give direction and shape of the fitted curve or compound fluorescence and quenching.

CCCCOCN(C(=O)CCl)c1c(CC)cccc1CC
inconclusive: [1] 49 µM [cytotoxic, partial curve] | [2] 54.5 µM [cytotoxic, partial curve, poor fit] | [3] 24.3 µM [inhibitor, partial curve] | [4] 24.3 µM [rising, partial curve, poor fit] | [5] 30.6 µM [rising, partial curve]

CCCN(CCC)c1c([N+](=O)[O-])cc(S(N)(=O)=O)cc1[N+](=O)[O-]
inactive: [10]
active: [1] 24.5 µM | [6] 52.2 µM | [2] 54.5 µM | [12] 24.3 µM | [3] 4.86 µM
inconclusive: [7] 65.2 µM [cytotoxic] | [8] 54.5 µM [cytotoxic, partial curve] | [9] 20.6 µM [inhibitor, full curve] | [11] 73.1 µM [cytotoxic, single point] | [4] 48.6 µM [cytotoxic, partial curve, poor fit] | [5] 73.1 µM [cytotoxic]

N#Cc1sc2c(=O)c3ccccc3c(=O)c=2sc1C#N
active: [1] 9.77 µM | [13] 21.9 µM | [14] 54.9 µM | [7] 5.45 µM | [8] 13.7 µM | [11] 30.6 µM | [3] 3.86 µM | [15] 17.2 µM
inconclusive: [4] 30.6 µM [rising, single point] | [5] 27.3 µM [rising, single point]

— PubChem BioAssay (Tox21)
